# Test results: ChEMBL document CHEMBL4888484, “Replenishing the malaria drug discovery pipeline: Screening and hit evaluation of the MMV Hit Generation Library 1 (HGL1) against asexual blood stage Plasmodium falciparum ,using a nano luciferase reporter read-out” (2022)
# About 540 (0.36%) of roughly 150,000 compounds showed an effect of 50% or more. This is one part of the list.
# System: Plasmodium falciparum
# Experiment: Primary screen in NF54 nanoGlo assay, in single point, at 2uM, 72h; a lower Z score goes with more inhibition
# Assay type: functional, Erythrocyte
# Settings: timepoint 72 hour
SMILES,% Inhibition [%],Z score
CCOc1ccc(N2C(=O)c3[nH]nc(-c4ccco4)c3[C@H]2c2cccnc2)cc1,6,-0.73
CC(C)(C)OC(=O)N1CCc2nc[nH]c2C1(C)C,-12,1.68
CCc1[nH]nc(NS(C)(=O)=O)c1C,-8,1.49
CCCCC(=O)Nc1ncc2c(n1)C(=O)CC(C)(C)C2,4,-0.74
NC(=O)c1ccccc1NC(=O)C1CCN(c2cc(C3CC3)ncn2)CC1,57,-10.93
COc1cc(CNCCN(C)C)cc(Br)c1OCC#N,-23,2.07
CCc1ncc(CN(C)C(=O)C2CC3CCCCC3N2)s1 (stereo unspecified),2,-0.3
Cc1csc(C[C@H]2CCN(C(=O)c3cc4cccnc4[nH]3)C2)n1,14,-1.82
O=C(Nc1cccc(Oc2cccnn2)c1)c1ccc2ncsc2c1,35,-2.92
CCCc1nccn1CCn1nc2ccccn2c1=O,14,-1.59
CC1CCCC(OCc2nnc(-c3ccncc3)o2)C1 (stereo unspecified),-8,1.04
Nc1nc(C2CC2)ncc1C(=O)N1CCCc2n[nH]cc21,1,-0.21
Cc1ccc2c(c1C)NC(=O)C21NC(Cc2ccccc2)[C@H]2C(=O)N(C3CCCCCC3)C(=O)[C@H]21 (stereo partly specified),-14,2.18
O=c1c2c(nc3n1CCCN3)CCCC2,-5,1.04
CCOc1ccc(-n2c(N3CCOCC3)nc3cc(C(=O)NCc4ccccc4)ccc3c2=O)cc1,-7,1.38
Fc1ccc(-c2csc(-n3nccc3-c3ccc(Cl)cc3Cl)n2)cc1,-13,1.63
COc1ccc(S(=O)(=O)N2CCN(Cc3noc(CCC(=O)N(C)Cc4ccccc4)n3)CC2)cc1,29,0.24
CN(Cc1ccccc1)C(=O)C1CC=CCC1C(=O)Nc1ncc(-c2ccc3c(c2)OCO3)n1C (stereo unspecified),36,-4.7
COc1ccc(OCc2nc3cc4c(cc3cc2C(=O)O)OCO4)cc1,31,-0.51
Cc1ccc(-c2cc3c(N4CCCN(C)CC4)nccn3n2)c(C)c1,33,-0.53
COc1cc2c(=O)ncn(Cc3cc(F)cc(F)c3)c2cc1F,5,-0.92
COc1ccc(OC)c(NC(=O)C(C)(C)Oc2ccc([C@H]3CC3(Cl)Cl)cc2)c1,-13,1.64
CCNC(=O)[C@H]1Cc2ccccc2CN1C(=O)c1cccnc1,5,-0.86
COc1ncccc1CNC(=O)CC1CCCC1,-4,0.48
C[C@H]1CN(C(=O)NCC(C)(C)c2cccs2)CCS1(=O)=O,-15,2.06
O=C(NCCN1CCCC1)c1ccc2nc(-c3ccc(Cl)cc3)cn2c1,75,-6.47
COCC1CN(c2ncnc3c2ncn3CC2(CO)CCOCC2)CC(C)O1 (stereo unspecified),-4,0.71

SMILES,% Inhibition [%],Z score
Cc1cnn(CC2CCCN2C(C)C(=O)Nc2cc(C)on2)c1 (stereo unspecified),-2,0.29
Cc1nc(C)n(C2CN(C(=O)c3nc(-c4cnn(C)c4)oc3C)C2)n1,-9,1.55
Cc1cc(Cl)ccc1C(=O)N[C@H]1CN(CC(N)=O)C[C@@H]1C1CC1,1,-0.2
COc1ccccc1C(=O)NCc1ccc(-c2nc3ccccc3s2)cc1,-12,1.6
CC(NC(=O)NC(C)c1ccc(-c2cccnc2)cc1)c1ccncc1 (stereo unspecified),7,-1.01
Cc1nc2ccc(N(C)C(=O)[C@H]3CC(=O)N(C4CCCC4)C3)cc2s1,-7,0.94
CC(C)Cc1cc(C(=O)N2C[C@@H]3NC(=O)CN(C4CC4)Cc4cccc(c4)Oc4cccc(c4)CO[C@H]3C2)on1,1,-0.12
CN(Cc1cccc2cc[nH]c12)C[C@H]1COCCO1,-1,0.14
CC(C)NC(=O)N1CCC2(CC1)N[C@@H](C(C)C)C(=O)N2CCc1ccccn1,-3,0.52
Cc1n[nH]c(C)c1CCn1cnc(-c2ccccc2)c1-c1cccnc1,7,-1.04
O=C(O)C1(Oc2ccccc2F)CCN(c2nccs2)CC1,-10,1.65
CC(C)(C)n1nc2nc(N3CCCC3)nc(-c3ccc(F)c(Cl)c3)c2c1N,-2,0.26
Cc1nnc2n1CC(NC(C(=O)NC(C)C)c1ccccc1)CC2 (stereo unspecified),-12,1.83
C[C@H](NC(=O)N1CCC(c2cc(=O)[nH]cn2)CC1)c1ccc(Cl)cc1,-3,0.42
Cn1ccnc1C(=O)N1CC(n2cc(C(=O)NCC3CC3)nn2)C1,-2,0.37
CCN1CN(Cc2cnnn2C)CC1=O,-5,0.92
CC(C)Oc1cc(N[C@H]2CCCC[C@@H]2O)nc(N)n1,-6,1.11
CCN(C(=O)c1occc1C)c1ncccc1C,-9,1.11
N#Cc1ccc([C@H]2CC(O)=Nc3nc(N4CCOCC4)sc32)cc1,-1,0.13
O=C(CCOc1ccc(F)cc1)N1CCc2[nH]ncc2C1,-11,1.22
CCCCS(=O)(=O)N1CCC2(CCCC2)C1,-5,0.45
CCOC(=O)[C@H]1CCCN(Cc2nc(N3CCCN(C(C)=O)CC3)c3ccccc3n2)C1,8,-1.06
CCO[C@H]1[C@H](NC(=O)c2cccnc2)c2ccccc2C12CCN(C(=O)c1cc(C(C)=O)n[nH]1)CC2,-11,2.21
CC#CCCn1cc(CCO)c(C(F)(F)F)n1,-14,1.73
O=C([C@H]1CC(=O)N(c2cccc(-c3noc(C4CCC4)n3)c2)C1)N1CCN(c2ccccc2)CC1,-1,0.14
COc1cc([C@H]2CC(=O)Nc3nc(N)sc32)ccc1OCc1ccccc1Cl,2,-0.2
